Screen size: about 310,000 compounds; about 14,000 (4.5%) showed an effect of 50% or more. The effect is printed as a negative number. The list shows a part of the results.
biological target: human ether-à-go-go-related gene (hERG) potassium channel (human, UniProt Q12809); assay: primary screen, population patch clamp on CHO cells stably expressing hERG
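Also: peak tail current of the secondary pulse compared with the same well before compound.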

human ether-à-go-go-related gene (hERG) potassium channel, sequence (Q12809 whole entry, looked up): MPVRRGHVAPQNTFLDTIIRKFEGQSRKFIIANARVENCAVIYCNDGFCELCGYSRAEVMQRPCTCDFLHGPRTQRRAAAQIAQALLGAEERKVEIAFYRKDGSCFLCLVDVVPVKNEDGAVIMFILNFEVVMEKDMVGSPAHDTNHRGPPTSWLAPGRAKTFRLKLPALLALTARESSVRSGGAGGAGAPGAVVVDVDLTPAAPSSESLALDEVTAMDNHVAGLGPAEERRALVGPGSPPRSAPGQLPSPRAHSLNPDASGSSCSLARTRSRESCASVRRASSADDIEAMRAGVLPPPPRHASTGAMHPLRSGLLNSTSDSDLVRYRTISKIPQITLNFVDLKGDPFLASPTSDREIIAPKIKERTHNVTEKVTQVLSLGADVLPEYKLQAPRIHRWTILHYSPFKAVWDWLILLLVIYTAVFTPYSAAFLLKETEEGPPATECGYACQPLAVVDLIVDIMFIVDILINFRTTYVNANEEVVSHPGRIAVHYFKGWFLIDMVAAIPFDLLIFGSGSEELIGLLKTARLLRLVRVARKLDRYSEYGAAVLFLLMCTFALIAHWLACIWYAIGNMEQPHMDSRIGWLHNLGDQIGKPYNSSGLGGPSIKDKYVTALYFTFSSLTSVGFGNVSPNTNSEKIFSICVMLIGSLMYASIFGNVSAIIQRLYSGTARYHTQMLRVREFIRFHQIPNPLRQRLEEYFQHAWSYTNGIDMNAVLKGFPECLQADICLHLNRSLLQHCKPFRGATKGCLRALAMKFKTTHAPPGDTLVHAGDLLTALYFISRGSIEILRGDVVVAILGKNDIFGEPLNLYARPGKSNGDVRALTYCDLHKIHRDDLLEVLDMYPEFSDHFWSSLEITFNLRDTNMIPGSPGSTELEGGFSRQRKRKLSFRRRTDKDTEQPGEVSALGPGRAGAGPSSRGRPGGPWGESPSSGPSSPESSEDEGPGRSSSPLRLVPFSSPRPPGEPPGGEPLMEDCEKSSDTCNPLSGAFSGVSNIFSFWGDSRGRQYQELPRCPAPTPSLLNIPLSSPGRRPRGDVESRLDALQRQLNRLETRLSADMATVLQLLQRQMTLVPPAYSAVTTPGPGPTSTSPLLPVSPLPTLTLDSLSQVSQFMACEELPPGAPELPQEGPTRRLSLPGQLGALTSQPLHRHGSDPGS

Compared with `CN1CCSc2ccc(C(=O)NCc3ccccc3)cc21`, `Cc1ccc(NC(=O)c2ccc(NCCc3ccccc3)c([N+](=O)[O-])c2)cc1F` is higher in “hERG current change (%, negative = inhibition) at 10uM” value: -9.52% for the first, 5.24% for the second.

Going from `Cc1ccc2cc(C=O)c(N3CCOCC3)nc2c1C` to `Cc1cc2oc(=O)cc(CN3CCOCC3)c2cc1O`, the “hERG current change (%, negative = inhibition) at 10uM” value falls from 13.3% to -22.6%.

First: O=C(NC1CCCCC1)N1CCC(n2c(=O)[nH]c3ccccc32)CC1
Second: O=C(Nc1ccccc1)NC1CCCCCCC1
The “hERG current change (%, negative = inhibition) at 10uM” value of the first is higher: 2.34% for the first, -0.392% for the second.

First: CC(=O)Nc1ccc(Oc2ccc3c(c2)C(=O)NC3=O)cc1
Second: O=C(O)c1ccc2c(c1)C(=O)N(c1ccc(Nc3ccccc3)cc1)C2=O
The “hERG current change (%, negative = inhibition) at 10uM” value of the first is higher: 24.8% for the first, 20.9% for the second.

First: CCc1ccc(CNc2ccc(N3CCN(C(C)=O)CC3)cc2)cc1
Second: COc1ccc(N2CCN(C(=O)c3ccc(CNS(=O)(=O)c4cccc(OC)c4)cc3)CC2)cc1
The “hERG current change (%, negative = inhibition) at 10uM” value of the first is higher: -11.1% for the first, -33.7% for the second.

Going from `CCOc1cc(/C=N/NC(=O)OC)ccc1OCCSc1ccc(Cl)cc1` to `COc1ccc(Oc2ccc(/C=N/NC(=O)c3cccnc3)cc2[N+](=O)[O-])cc1`, the “hERG current change (%, negative = inhibition) at 10uM” value falls from 4.75% to -19.3%.

First: Cn1c(NC(=O)C2CCCC2)cc(=O)n(C)c1=O
Second: CN(C)CC1CCCCC1OC(=O)c1ccc(Cl)cc1Cl.Cl (centres unmarked)
The “hERG current change (%, negative = inhibition) at 10uM” value of the first is higher: 6.09% for the first, -56.5% for the second.

Compared with `Br.COCCn1c(-c2ccccc2)csc1=Nc1cccnc1`, `FC(F)(F)c1cc(-c2cccs2)nc2cc(-c3ccccc3)nn12` is higher in “hERG current change (%, negative = inhibition) at 10uM” value: -68.3% for the first, -13.3% for the second.

Going from `CC(=O)c1c(C)[nH]c(C(=O)CSc2nnc(CN3CCCCCC3=O)n2-c2ccccn2)c1C` to `CC(=O)c1c(C)[nH]c(C(=O)CSc2nnc(-c3ccco3)n2Cc2ccccc2)c1C`, the “hERG current change (%, negative = inhibition) at 10uM” value falls from 6.65% to -61.5%.

Compared with `CC(C(=O)c1c[nH]c2ccccc12)N1CCc2ccccc2C1` (centres unmarked), `Cc1ccc(NC(=O)CCCc2c[nH]c3ccccc23)nc1` is higher in “hERG current change (%, negative = inhibition) at 10uM” value: 5.34% for the first, 8.67% for the second.

First: COc1ccc([C@H]2[C@H](C(C)=O)N3N=Cc4ccccc4C3C23C(=O)OC(C)(C)OC3=O)cc1 (some centres unmarked)
Second: COc1ccc(Nc2nc(N(C)c3ccccc3)nc(N)c2[N+](=O)[O-])cc1
The “hERG current change (%, negative = inhibition) at 10uM” value of the first is lower: -19.1% for the first, 4.76% for the second.

Compared with `CCC1CCCCN1CCNC(=O)C1CCN(S(=O)(=O)c2cccc3nsnc23)CC1` (centres unmarked), `NC(=O)CNC(=O)C1CCN(S(=O)(=O)c2ccc(-n3cnnn3)cc2)CC1` is higher in “hERG current change (%, negative = inhibition) at 10uM” value: -43.2% for the first, -41.4% for the second.

Compared with `COc1ccc(C(CC(=O)O)NC(=O)c2ccco2)cc1` (centres unmarked), `O=C(NC(Cc1ccccc1)C(=O)O)/C(=C\c1ccccc1)NC(=O)c1ccco1` (centres unmarked) is higher in “hERG current change (%, negative = inhibition) at 10uM” value: 2.5% for the first, 16.5% for the second.

Compared with `CCOc1ccc(-n2c(=O)c3c4c(sc3n(CC(=O)NCC3CCCO3)c2=O)CCC4)cc1` (centres unmarked), `CCCOc1ccc(N2C(=O)CC(NCCc3ccc(S(N)(=O)=O)cc3)C2=O)cc1` (centres unmarked) is lower in “hERG current change (%, negative = inhibition) at 10uM” value: 2.64% for the first, -5.4% for the second.

First: NC(=O)C1CCN(C(=O)CSc2nc3c(c(-c4ccccc4)n2)CCCC3)CC1
Second: O=C(CSc1nncn1-c1ccccc1F)NC1CCCCC1
The “hERG current change (%, negative = inhibition) at 10uM” value of the first is lower: -13.9% for the first, 6.01% for the second.

Compared with `COCC(=O)NC1CCN(C(=O)Nc2ccc(Br)cc2)CC1`, `CC(C)(C)c1ccc(OCCC(=O)OCC(=O)NC2CCS(=O)(=O)C2)cc1` (centres unmarked) is lower in “hERG current change (%, negative = inhibition) at 10uM” value: -12.7% for the first, -20.3% for the second.

Compared with `Cc1ccc(C(=O)NCC(c2ccco2)N2CCOCC2)cc1` (centres unmarked), `CC(C)(CNC(=O)c1ccc(-c2ccccc2Cl)o1)N1CCOCC1` is lower in “hERG current change (%, negative = inhibition) at 10uM” value: 9.59% for the first, -39.9% for the second.

Going from `O=C(NCCNc1nccc(C(F)(F)F)n1)c1cccs1` to `Cc1cc(S(=O)(=O)N2CCOCC2)ccc1OCC(=O)Nc1ccccc1C(F)(F)F`, the “hERG current change (%, negative = inhibition) at 10uM” value rises from -11.3% to 12.8%.

First: O=[N+]([O-])c1cccc(NC(=S)NCc2ccncc2)c1
Second: COc1ccc([N+](=O)[O-])cc1NC(=O)CSc1ncccn1
The “hERG current change (%, negative = inhibition) at 10uM” value of the first is lower: 0.695% for the first, 1.79% for the second.

Compared with `O=S(=O)(NC(=S)c1ccccc1)c1ccc(Cl)cc1`, `O=C(COC(=O)C(Cc1ccccc1)NC(=O)c1ccccc1)c1ccccc1` (centres unmarked) is lower in “hERG current change (%, negative = inhibition) at 10uM” value: 17.3% for the first, -1.84% for the second.

Compared with `CCOC(=O)C(C)(C)N(Cc1cccc(C)c1)S(=O)(=O)c1ccc(Cl)c([N+](=O)[O-])c1`, `CCN(c1cccc(C)c1)S(=O)(=O)c1ccc(-c2cc(C)no2)s1` is lower in “hERG current change (%, negative = inhibition) at 10uM” value: 9.94% for the first, 5.94% for the second.

Going from `O=C(COc1ccc(Br)cc1)Nc1cc(S(=O)(=O)N2CCCCC2)ccc1N1CCCCC1` to `COc1ccc(N2CCN(S(=O)(=O)c3cc(-c4cc(C)no4)ccc3C(C)C)CC2)cc1`, the “hERG current change (%, negative = inhibition) at 10uM” value falls from 11.4% to 4.79%.

Compared with `O=C(NCc1ccco1)NC12CC3CC(CC(C3)C1)C2`, `O=C(O)C1CCC(=O)N(C2CCCCC2)C1c1ccccc1Cl` (centres unmarked) is lower in “hERG current change (%, negative = inhibition) at 10uM” value: 14.5% for the first, 9.09% for the second.

Compared with `COc1ccc(C(=O)NC(=S)N2CCN(c3ccccc3OC)CC2)cc1OC`, `COc1ccc(OC)c(NC(=O)CN2C(=O)NC3(CCCc4ccccc43)C2=O)c1` (centres unmarked) is lower in “hERG current change (%, negative = inhibition) at 10uM” value: 21.8% for the first, -2.88% for the second.

Compared with `Cc1nnc(SCC(=O)N2c3ccccc3CC2C)[nH]c1=O` (centres unmarked), `CC1Cc2nc(SCC(=O)Nc3nc4ccccc4s3)n(C)c(=O)c2S1` (centres unmarked) is lower in “hERG current change (%, negative = inhibition) at 10uM” value: 22.6% for the first, -20.1% for the second.

First: O=C(c1cccc(S(=O)(=O)N2CCOCC2)c1)N(CCc1ccccc1)Cc1ccccc1
Second: O=C(Cn1cnc2ccccc21)NC(c1ccccc1)c1ccccc1
The “hERG current change (%, negative = inhibition) at 10uM” value of the first is lower: -55.4% for the first, 1.29% for the second.

First: CC(C)[C@H](NC(=O)C1CCN(S(=O)(=O)c2ccccc2)CC1)C(=O)NCc1ccncc1
Second: COCCNC(=O)NC(=O)CN1CCN(C(c2ccccc2)c2ccccc2)CC1
The “hERG current change (%, negative = inhibition) at 10uM” value of the first is higher: 12.4% for the first, -6.84% for the second.

Going from `COC(=O)c1cc(C(=O)c2ccccc2)n2c(=O)/c(=C\N(C)C)sc12` to `CCC(SC1=N/C(=C/c2ccccc2)C(=O)N1c1ccccc1)C(=O)Nc1cc(C)on1` (centres unmarked), the “hERG current change (%, negative = inhibition) at 10uM” value rises from 2.57% to 5.9%.

Compared with `C=CCSc1cc(C)nc2c(-c3ccc(Cl)cc3)c(C)nn12`, `Cc1cc(C)n(Cc2ccc(NC(=O)c3nn(C)cc3[N+](=O)[O-])cc2)n1` is higher in “hERG current change (%, negative = inhibition) at 10uM” value: -2.58% for the first, 1.68% for the second.

First: Cc1ccc(C(=O)COc2nc(C)nc3ccccc23)cc1
Second: CCCn1c(NCc2ccc(N(C)C)cc2)nc2ccccc21
The “hERG current change (%, negative = inhibition) at 10uM” value of the first is higher: 20.5% for the first, -40.2% for the second.

First: CCOC(=O)c1c(C)[nH]c(C(=O)CSc2nnnn2-c2ccccc2)c1C
Second: Cn1c(Cn2nnc3ccccc32)nnc1SCC(=O)c1ccccc1F
The “hERG current change (%, negative = inhibition) at 10uM” value of the first is higher: 11.8% for the first, -10.7% for the second.

Compared with `CCN(CC)CCn1c2c(c(SCC(=O)Nc3nc(C)cs3)nc1=O)CCC2`, `CCC(=O)Nc1cccc(NC(=O)CSc2nnc(C(C)C)n2CC)c1` is higher in “hERG current change (%, negative = inhibition) at 10uM” value: -48.7% for the first, -9.89% for the second.

First: N#CCCCCn1c(-c2cncs2)nc2ccccc21
Second: CCCc1cc(=O)n2c(nc3ccccc32)[nH]1
The “hERG current change (%, negative = inhibition) at 10uM” value of the first is lower: -40.9% for the first, 9.3% for the second.

First: O=c1ccc2cc(O)c(O)cc2o1
Second: Cc1cc(-c2ccccc2)c2c(n1)sc1c(O)cc(=O)[nH]c12
The “hERG current change (%, negative = inhibition) at 10uM” value of the first is lower: 16.7% for the first, 29.2% for the second.

Compared with `O=C(C1=C(O)C(=O)N(CCN2CCOCC2)C1c1cccc(F)c1)c1cc2ccccc2o1` (centres unmarked), `Cc1ccc(C2/C(=C(\O)c3c(C)nc4ccccn34)C(=O)C(=O)N2CCN(C)C)o1` (centres unmarked) is lower in “hERG current change (%, negative = inhibition) at 10uM” value: 1.25% for the first, -0.83% for the second.

Going from `COc1ccc(/C(N)=N/OC(=O)c2ccc(Br)o2)cc1` to `Nc1c(C(=O)c2ccc(Br)s2)oc2ccccc12`, the “hERG current change (%, negative = inhibition) at 10uM” value falls from 8.81% to -8.01%.

Compared with `CSCCC(NC(=O)COc1ccccc1)C(=O)N(C)Cc1cccc(F)c1` (centres unmarked), `Cc1cc(C)c(OCCCCN(C)Cc2ccccc2)c(C)c1.O=C(O)C(=O)O` is higher in “hERG current change (%, negative = inhibition) at 10uM” value: -37.9% for the first, -36.9% for the second.

First: O=C(/C=C/c1ccc(F)cc1)N1CCCN(C(=O)/C=C/c2ccc(F)cc2)CC1
Second: COc1ccccc1-c1nn(Cc2ccccc2)cc1/C=C/C(=O)O
The “hERG current change (%, negative = inhibition) at 10uM” value of the first is lower: -75.6% for the first, 0.388% for the second.

Compared with `CCNC(=O)N1C(=O)C2(OCCO2)c2cc(Br)ccc21`, `CCOC(=O)c1cccc(NC(=O)c2c(O)[nH]c(=O)[nH]c2=O)c1` is lower in “hERG current change (%, negative = inhibition) at 10uM” value: 12.2% for the first, -2.88% for the second.

Going from `CCCCSCCCNC(=O)c1ccc(CS(=O)(=O)c2ccccc2OC)o1` to `Cc1ccc(Oc2cc(NC(=O)CCCn3nc([N+](=O)[O-])cc3C)cc([N+](=O)[O-])c2)cc1`, the “hERG current change (%, negative = inhibition) at 10uM” value rises from -41.4% to 9.26%.

Compared with `O=C(N/N=C/c1ccoc1)c1ccc(Cl)cc1Cl`, `O=[N+]([O-])c1ccc(O)c(/C=N/n2c(-c3ccccc3)n[nH]c2=S)c1` is higher in “hERG current change (%, negative = inhibition) at 10uM” value: 10% for the first, 17.9% for the second.

First: CC(C)(C)NS(=O)(=O)CC12CCC(CC1=O)C2(C)C (centres unmarked)
Second: CCN(CC)S(=O)(=O)c1ccc(N/N=C(\C)c2cccnc2)nc1
The “hERG current change (%, negative = inhibition) at 10uM” value of the first is higher: 6.55% for the first, -16.4% for the second.

Going from `CCCc1[nH]nc2c1C(c1ccc(OC)c(Cn3nnc4ccccc43)c1)C(C#N)=C(N)O2` (centres unmarked) to `COc1ccc2nc(SCC(=O)Nc3ccc4sc(C)nc4c3)c(C#N)cc2c1`, the “hERG current change (%, negative = inhibition) at 10uM” value rises from -29.1% to 10.2%.
